Laboratory results taken from the supplement of paper PMC3334620.
The full ranking holds about 33,000 sequences; the median of “E-score (-0.5 to 0.5)” is about -0.017, and the highest 2% start at about 0.3. The list shows a part of the results.

Biological target: T1, Sut1 (UniProt P53032)
T1 sequence: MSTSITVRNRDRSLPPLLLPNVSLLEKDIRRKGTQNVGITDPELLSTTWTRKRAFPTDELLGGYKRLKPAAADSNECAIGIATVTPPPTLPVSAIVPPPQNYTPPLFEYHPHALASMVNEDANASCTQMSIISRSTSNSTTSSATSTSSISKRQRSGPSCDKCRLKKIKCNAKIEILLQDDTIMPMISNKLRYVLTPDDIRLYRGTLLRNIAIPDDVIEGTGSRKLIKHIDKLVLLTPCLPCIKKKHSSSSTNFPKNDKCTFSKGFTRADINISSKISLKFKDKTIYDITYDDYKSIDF
Assay: PBM E-score (8-mer binding enrichment) (E-score (-0.5 to 0.5)); higher = stronger / more preferred TF binding; most listed sequences are background and not binding sites
Conditions: protein concentration: 200 nM; construct: GST-full length
Description: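 Universal 'all 10-mer' protein binding microarrays (Agilent AMADID 015681) probed with GST-tagged S. cerevisiae TFs (full-length or DBD) made by in vitro transcription/translation (PURExpress), about 100-200 nM. Bound TF was detected with fluorescent anti-GST. Each ungapped 8-mer (which stands for itself and its reverse complement) is scored by the PBM enrichment score (E-score), a modified Wilcoxon-Mann-Whitney statistic from -0.5 to +0.5, computed with the Universal PBM Analysis Suite. Scale: above 0.35 generally sequence-specific binding.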

Sequence	PBM E-score
CGGTCTAG	-0.0195
CAATTTCA	0.00344
AAAATACG	0.223
CACAGCGC	-0.202
GTCCTAAC	-0.14
CAATCGTA	0.181
ACTAGGGC	-0.224
AAGGGGGG	-0.395
ATCCAAAG	0.202
CGCCGCCG	-0.0805
AGATAATG	0.106
CGTTTGCC	-0.00944
GCCATCGC	-0.234
ATGAGGAC	-0.19
CACGCCGG	0.0532
TGAAAAAA	0.248
ATTATTAA	0.236
ACGCGCGG	0.147
ACAATCGA	-0.0391
ACAAAGTG	0.0464
TATACTGA	0.292
CTCATAGA	0.0624
CACATGGA	-0.124
TGATTCAA	0.119
CAACCGGG	-0.129

Sequence	PBM E-score
ATGAATAC	0.132
TCGCCCAA	-0.12
TGTGATAA	0.172
AAGTGCAA	-0.0212
AAACATGG	-0.0258
ATGCACAA	-0.00059
AGGGCAGC	-0.129
GTTGTAAA	0.0974
ATATGATG	0.19
TCCTAAGA	-0.156
GCTTGATA	0.0126
ACCAGCGC	-0.182
GAATAAAA	0.242
CGTCGGTA	-0.229
AGTCACCC	-0.0174
ATATCGGG	-0.0571
TCAAATGA	0.174
AATGAAGT	0.059
GCATCCCC	-0.0582
ACGTGTAG	-0.224
ACCACGTG	-0.126
AACGGGAA	0.219
GCATACAA	0.0888
ACGGCGAG	-0.135
GGACTCTA	0.25

Sequence	PBM E-score
ACTCTAAA	0.215
CTGAAGTC	0.0851
ATTAAGTC	0.218
CATAATCG	0.112
AAGAGGTG	-0.0341
CTACCGCA	-9e-05
ACTACTAG	0.0721
AGGTATTA	0.17
AGCGCGCT	0.0133
GCTTGCCA	-0.142
TCGGCGAA	0.0741
AGGTGAGG	-0.115
GCCCTGCC	-0.235
CCCGGCAA	0.072
AGAAGTCC	0.238
CCGGCCGG	0.257
CTGAACGC	-0.144
CAATACGC	-0.0844
GGTGACAA	-0.0837
GCATCACC	-0.196
TTCCTAAA	-0.0683
ATCCAGTG	-0.0456
CCGCGTTA	0.00862
ACGTCGGG	-0.202
GCCGGACA	0.273

Sequence	PBM E-score
CTCCTGGA	-0.276
GCGCTCGA	-0.165
TAATTCTA	0.237
CTCAGGAA	0.0141
GATTAGGA	0.059
TTAAGCAA	0.141
CTGAGACA	-0.0695
AGTTTAAG	0.158
AGGAACCT	-0.00543
ACTCGCTC	-0.0565
ATAGGCAA	-0.187
ATGTTATA	0.233
AGCCCATA	-0.137
GACTGTGA	-0.0308
AGCTCTTA	0.0472
GGCCGCCA	-0.203
CCATCTCC	0.256
CTAGATGC	-0.05
AGGATTCC	-0.247
CGACTCGA	-0.0972
CGTCGGAA	0.196
AGGCTTAA	0.0748
AAATGAAA	0.265
CTCCGAAA	0.46
CGCAAAGC	0.0688

Sequence	PBM E-score
ACGAGGGA	-0.0733
GAGATGGA	-0.134
ATCTCCGC	0.399
GGTATGTA	0.0515
CAAGAACA	-0.0381
ACCCATCT	-0.0338
CCACTTGC	-0.0264
CACACGTA	-0.169
CCGTTGCG	0.0775
GAGAAACA	0.165
CGGAGGGA	-0.0584
GCAGCGGC	-0.219
AAAGCCGC	0.0223
ATCCCTAA	-0.184
CGGCCAAC	-0.127
GAGTGTGA	0.0613
ACCGTCCT	-0.128
CCTTGGAG	-0.216
AGGTAGTG	-0.162
AACGATTG	0.00912
AAATTGGA	0.173
ACCAGGTA	-0.247
ACGGTTAT	-0.0633
CAATGAGA	-0.0608
AGTGGCCG	-0.0637

Sequence	PBM E-score
CGTGACCC	-0.111
GTTTCTTA	0.0332
CCCATCGC	-0.189
ATGTCGGA	0.171
GAATTACA	0.197
GCGGGAAA	0.0939
AGATCGAA	0.127
CTCTCGCC	-0.182
GGCTGAAA	0.156
TCTAGAGA	-0.0781
CGTATTAG	0.15
AGATAGTC	-0.132
ATTCATCC	0.0522
AAAAGGTT	0.189
CAGTGATC	-0.16
CCCTGAGG	-0.198
CCATAATA	0.157
GCGAGCGC	-0.137
GCACTCAC	-0.146
GGCTTAAA	0.0567
CATTGGGC	-0.206
GACTTCAC	-0.00592
ATCCTTCA	0.0682
CGTCCACC	-0.203
AAAACAAT	0.215

Sequence	PBM E-score
CCACGTTC	-0.173
ATAACAGC	0.0774
TGAAGCCA	0.0704
AAGCTGGT	-0.0508
CTCTCAAA	0.0731
GGTAAGGA	-0.143
ATTGCTTG	0.111
AAGTACCA	0.0305
AGACTCCA	-0.00302
TAGTTGAA	0.132
TATAGGCA	-0.158
AATAATAA	0.304
GTCCAAGA	-0.258
TCACGCCA	-0.0888
GCGTTTTA	0.0253
CACGATAC	-0.0756
AATTAAAT	0.276
CCATTTCC	0.139
CAGCCGAG	-0.13
GTTCGACA	-0.0722
ACGTAATG	-0.0505
AGCTTTGG	-0.0138
